Patent US20250368649A1, “TETRAHYDROPYRIDOPYRIMIDINE PAN-KRAS INHIBITORS” (Mirati Therapeutics, Inc., priority 2022, published 2025)

Assays:
[1] = target: KRas WT (Homo sapiens, UniProt P01116); assay: KRas binding assay (TR-FRET displacement), KRas WT; settings: TR-FRET displacement
[2] = target: KRas G12A (Homo sapiens, UniProt P01116, G12A); assay type: binding; settings: TR-FRET displacement, read-out: Binding to KRas (IC50 nM) G12A
[3] = target: KRas G12C (Homo sapiens, UniProt P01116, G12C); assay type: binding; settings: TR-FRET displacement, read-out: Binding to KRas (IC50 nM) G12C
[4] = target: KRas G12S (Homo sapiens, UniProt P01116, G12S); assay type: binding; settings: TR-FRET displacement, read-out: Binding to KRas (IC50 nM) G12S
[5] = target: KRas G13D (Homo sapiens, UniProt P01116, G13D); assay type: binding; settings: TR-FRET displacement, read-out: Binding to KRas (IC50 nM) G13D
[6] = target: KRas Q61H (Homo sapiens, UniProt P01116, Q61H); assay: KRas binding assay (TR-FRET displacement), KRas Q61H; settings: TR-FRET displacement
[7] = tested on: ASPC1 cells; assay: Inhibition of KRas-mediated phosphorylation of ERK (Cisbio HTRF pERK), ASPC1 cells; assay type: cell-based; settings: Homo sapiens, AsPC-1 cells; for IC50: ASPC1, 3 h, 3 hr compound incubation
[8] = tested on: H727 cells; assay: Inhibition of KRas-mediated phosphorylation of ERK (Cisbio HTRF pERK), H727 cells; assay type: cell-based; settings: Homo sapiens; for IC50: NCI-H727, 3 h, 3 hr compound incubation
[9] = tested on: H460 cells; assay: Inhibition of KRas-mediated phosphorylation of ERK (Cisbio HTRF pERK), H460 cells; assay type: cell-based; settings: Homo sapiens, NCI-H460, single point at 100 nM, 3 hrs compound incubation
[10] = tested on: HCT116 cells; assay: Inhibition of KRas-mediated phosphorylation of ERK (Cisbio HTRF pERK), HCT116 cells; assay type: cell-based; settings: Homo sapiens, HCT-116, single point at 100 nM, 3 hrs compound incubation

| IC50 [1] [nM] | IC50 [2] [nM] | IC50 [3] [nM] | IC50 [4] [nM] | IC50 [5] [nM] | IC50 [6] [nM] | IC50 [7] [nM] | IC50 [8] [nM] | Compound | also measured |
| --- | --- | --- | --- | --- | --- | --- | --- | --- | --- |
| 2940 | 2210 | 1490 | 1900 | 3790 | 3030 |  |  | CCc1cccc2cccc(N3CCc4c(nc(OCC5(CN(C)C)CC5)nc4N4CCn5ncc(S(N)(=O)=O)c5C4)C3)c12 [Example 524, 5-(2-((1-((dimethylamino)methyl)cyclopropyl)methoxy)-7-(8-ethylnaphthalen-1-yl)-5,6,7,8-tetrahydropyrido[3,4-d]pyrimidin-4-yl)-4,5,6,7-tetrahydropyrazolo[1,5-a]pyrazine-3-sulfonamide] |  |
| > 100000 | > 100000 | > 100000 | > 100000 | > 100000 | > 100000 |  |  | CCc1cccc2cccc(N3CCc4c(nc(OCC56CCCN5CCC6)nc4C(=O)NC)C3)c12 [Example 591, 7-(8-ethylnaphthalen-1-yl)-N-methyl-2-((tetrahydro-1H-pyrrolizin-7a(5H)-yl)methoxy)-5,6,7,8-tetrahydropyrido[3,4-d]pyrimidine-4-carboxamide] |  |
| 55000 | 55400 | 36600 | 53600 | 98200 | 65100 |  |  | CCc1cccc2cccc(N3CCc4c(nc(OCC5(CN(C)C)CC5)nc4NCc4nn(C)c(C)c4S(N)(=O)=O)C3)c12 [Example 527, 3-(((2-((1-((dimethylamino)methyl)cyclopropyl)methoxy)-7-(8-ethylnaphthalen-1-yl)-5,6,7,8-tetrahydropyrido[3,4-d]pyrimidin-4-yl)amino)methyl)-1,5-dimethyl-1H-pyrazole-4-sulfonamide] |  |
| 13600 | 8510 | 6600 | 7560 | 23900 | 25400 |  |  | CCc1cccc2cccc(N3CCc4c(nc(OCC56CCCN5CCC6)nc4N4CCn5nc(P(C)(C)=O)cc5C4)C3)c12 [Example 476, (5-(7-(8-ethylnaphthalen-1-yl)-2-((tetrahydro-1H-pyrrolizin-7a(5H)-yl)methoxy)-5,6,7,8-tetrahydropyrido[3,4-d]pyrimidin-4-yl)-4,5,6,7-tetrahydropyrazolo[1,5-a]pyrazin-2-yl)dimethylphosphine oxide] |  |
| 1080 | 645 | 585 | 728 | 1440 | 1400 |  |  | Cc1cc2[nH]ncc2c(N2CCc3c(nc(OCC45CCCN4CCC5)nc3N3CCCC4(CC(O)C4)C3)C2)c1C (single isomer, unassigned; isomer 2) [Example 454, 6-(7-(5,6-dimethyl-1H-indazol-4-yl)-2-((hexahydro-1H-pyrrolizin-7a-yl)methoxy)-5,6,7,8-tetrahydropyrido[3,4-d]pyrimidin-4-yl)-6-azaspiro[3.5]nonan-2-ol (isomer 2)] |  |
| 25700 | 21900 | 29100 | 19400 | 25600 | 28200 |  |  | Cc1cc2[nH]nnc2c(N2CCc3c(nc(OCC45CCCN4CCC5)nc3N3C[C@@H]4C[C@H](C3)[C@H](O)C4)C2)c1C [Example 640, (1R,5R,6R)-3-(7-(5,6-dimethyl-1H-benzo[d][1,2,3]triazol-4-yl)-2-((tetrahydro-11H-pyrrolizin-7a(5H)-yl)methoxy)-5,6,7,8-tetrahydropyrido[3,4-d]pyrimidin-4-yl)-3-azabicyclo[3.2.1]octan-6-ol] |  |
|  |  |  |  |  |  | > 10000 | > 10000 | CCc1c(F)ccc2cc(O)cc(N3CCc4c(nc(OCC5(CN(C)C)CC5)nc4N4CCCN(C(=O)Cc5ccccn5)CC4)C3)c12 [Example 647, 1-(4-(2-((1-((dimethylamino)methyl)cyclopropyl)methoxy)-7-(8-ethyl-7-fluoro-3-hydroxynaphthalen-1-yl)-5,6,7,8-tetrahydropyrido[3,4-d]pyrimidin-4-yl)-1,4-diazepan-1-yl)-2-(pyridin-2-yl)ethan-1-one] |  |
|  |  |  |  |  |  | 361 | 753 | CCc1c(F)ccc2cc(O)cc(N3CCc4c(nc(OC[C@@]56CCCN5C[C@H](F)C6)nc4N4CCCn5nc(CCO)cc5C4)C3)c12 [Example 630, 5-ethyl-6-fluoro-4-(2-(((2R,7aS)-2-fluorotetrahydro-1H-pyrrolizin-7a(5H)-yl)methoxy)-4-(2-(2-hydroxyethyl)-7,8-dihydro-4H-pyrazolo[1,5-a][1,4]diazepin-5(6H)-yl)-5,8-dihydropyrido[3,4-d]pyrimidin-7(6H)-yl)naphthalen-2-ol] |  |
|  |  |  |  |  |  | > 10000 | > 10000 | CCc1c(F)ccc2cc(O)cc(N3CCc4c(nc(N5CC(N)C5)nc4N4CCCC5(C4)NC(=O)NC5=O)C3)c12 (centres unmarked) [Example 627, 7-(2-(3-aminoazetidin-1-yl)-7-(8-ethyl-7-fluoro-3-hydroxynaphthalen-1-yl)-5,6,7,8-tetrahydropyrido[3,4-d]pyrimidin-4-yl)-1,3,7-triazaspiro[4.5]decane-2,4-dione] |  |
|  |  |  |  |  |  | 6300 | 4640 | CCc1c(F)ccc2cc(O)cc(N3CCc4c(nc(OCC5(CN(C)C)CC5)nc4N4CCCN(CC(F)(F)F)CC4)C3)c12 [Example 646, 4-(2-((1-((dimethylamino)methyl)cyclopropyl)methoxy)-4-(4-(2,2,2-trifluoroethyl)-1,4-diazepan-1-yl)-5,8-dihydropyrido[3,4-d]pyrimidin-7(6H)-yl)-5-ethyl-6-fluoronaphthalen-2-ol] |  |
|  |  |  |  |  |  | 4640 | 4640 | CCc1c(F)ccc2cc(O)cc(N3CCc4c(nc(OCC5(CN(C)C)CC5)nc4N4CCCN(c5nccs5)CC4)C3)c12 [Example 645, 4-(2-((1-((dimethylamino)methyl)cyclopropyl)methoxy)-4-(4-(thiazol-2-yl)-1,4-diazepan-1-yl)-5,8-dihydropyrido[3,4-d]pyrimidin-7(6H)-yl)-5-ethyl-6-fluoronaphthalen-2-ol] |  |
|  |  |  |  |  |  | > 10000 | > 10000 | CCc1c(F)ccc2cc(O)cc(N3CCc4c(nc(OC[C@@]56CCCN5C[C@H](F)C6)nc4N4CCCN(C(=O)Cc5ccccn5)CC4)C3)c12 [Example 650, 1-(4-(7-(8-ethyl-7-fluoro-3-hydroxynaphthalen-1-yl)-2-(((2R,7aS)-2-fluorotetrahydro-1H-pyrrolizin-7a(5H)-yl)methoxy)-5,6,7,8-tetrahydropyrido[3,4-d]pyrimidin-4-yl)-1,4-diazepan-1-yl)-2-(pyridin-2-yl)ethan-1-one] |  |
|  |  |  |  |  |  |  |  | CCc1c(F)ccc2cc(O)cc(N3CCc4c(nc(OC[C@@]56CCCN5C[C@H](F)C6)nc4N4CCCn5nc(C(=O)N6CC7(CCN7)C6)cc5C4)C3)c12 [Example 233, (5-(7-(8-ethyl-7-fluoro-3-hydroxynaphthalen-1-yl)-2-(((2R,7aS)-2-fluorohexahydro-1 H-pyrrolizin-7a-yl)methoxy)-5,6,7,8-tetrahydropyrido[3,4-d]pyrimidin-4-yl)-5,6,7,8-tetrahydro-4H-pyrazolo[1,5-a][1,4]diazepin-2-yl)(1,6-diazaspiro[3.3]heptan-6-yl)methanone] | IC50 ([7]; Cisbio pERK HTRF): 94 nM; inhibition at 0.1 µM ([7]; ASPC1, single point at 100 nM, 3 hrs compound incubation): 30%; IC50 ([8]; Cisbio pERK HTRF): 346 nM; inhibition at 0.1 µM ([8]; NCI-H727, single point at 100 nM, 3 hrs compound incubation): 31%; inhibition at 0.1 µM [9]: -7%; inhibition at 0.1 µM [10]: -10% |
|  |  |  |  |  |  | 2550 | 1670 | CCc1c(F)ccc2cc(O)cc(N3CCc4c(nc(OC[C@@]56CCCN5C[C@H](F)C6)nc4N4CCCC5(C4)NC(=O)CC54COC4)C3)c12 (stereo partly drawn) [Example 629, 7-(7-(8-ethyl-7-fluoro-3-hydroxynaphthalen-1-yl)-2-(((2R,7aS)-2-fluorotetrahydro-1H-pyrrolizin-7a(5H)-yl)methoxy)-5,6,7,8-tetrahydropyrido[3,4-d]pyrimidin-4-yl)-2-oxa-7,11-diazadispiro[3.0.55.34]tridecan-12-one] |  |
|  |  |  |  |  |  | > 10000 | > 10000 | CCc1c(F)ccc2cc(O)cc(N3CCc4c(nc(OC[C@@]56CCCN5C[C@H](F)C6)nc4N4C[C@H]5CC[C@@H](C4)[C@H]5C#N)C3)c12 [Example 652, (1R,5S,8R)-3-(7-(8-ethyl-7-fluoro-3-hydroxynaphthalen-1-yl)-2-(((2R,7aS)-2-fluorotetrahydro-1H-pyrrolizin-7a(5H)-yl)methoxy)-5,6,7,8-tetrahydropyrido[3,4-d]pyrimidin-4-yl)-3-azabicyclo[3.2.1]octane-8-carbonitrile] |  |
|  |  |  |  |  |  |  |  | CCc1c(F)ccc2cc(O)cc(N3CCc4c(nc(OCC5(CN(C)C)CC5)nc4N4CCCC5(CNC(=O)N5)C4)C3)c12 (centres unmarked) [Example 428, 7-(2-((1-((dimethylamino)methyl)cyclopropyl)methoxy)-7-(8-ethyl-7-fluoro-3-hydroxynaphthalen-1-yl)-5,6,7,8-tetrahydropyrido[3,4-d]pyrimidin-4-yl)-1,3,7-triazaspiro[4.5]decan-2-one] | IC50 ([7]; Cisbio pERK HTRF): 29 nM; IC50 ([8]; Cisbio pERK HTRF): 199 nM; inhibition at 0.1 µM [9]: 68%; inhibition at 0.1 µM [10]: 30% |
